# From the supplement of paper PMC4967469
# pIC50: −log10 of the molar value. A lower IC50 marks a more sensitive line; a fit beyond the top or the lowest dose is shown as a bound at that dose. AUC, from the same fit, is the share of area under the viability curve across the 256-fold dose range; values near 1 show little effect. For some of these results: Any top dose called inferred was calculated from the reported fits.
# What was measured:
# Test in all cases: Viability of human cancer cell lines after 72 h of drug (GDSC screen)
# GW843682X = compound: COc1cc2ncn(-c3cc(OCc4ccccc4C(F)(F)F)c(C(N)=O)s3)c2cc1OC [GW843682X]; conditions: top dose 0.256 µM
# Description: (§1)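 Human cancer cell lines in 384-well plates, medium with 10% serum, drug for 72 h over a 256-fold dose range (nine 2-fold or five 4-fold steps up to the top dose). Adherent lines were fixed and stained with the nucleic acid dye Syto60, suspension lines read with resazurin; signal relative to control wells, capped at 0 and 100%. One two-parameter sigmoid per drug and line, fitted in a mixed model over all curves with the slope shared within a line.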
# Salubrinal = compound: O=C(/C=C/c1ccccc1)NC(NC(=S)Nc1cccc2cccnc12)C(Cl)(Cl)Cl [Salubrinal]; conditions: top dose 16 µM; top dose inferred
# Description: as §1
# ABT-263 = compound: CC1(C)CCC(c2ccc(Cl)cc2)=C(CN2CCN(c3ccc(C(=O)NS(=O)(=O)c4ccc(N[C@H](CCN5CCOCC5)CSc5ccccc5)c(S(=O)(=O)C(F)(F)F)c4)cc3)CC2)C1 [ABT-263]; conditions: top dose 2 µM; top dose inferred
# Description: as §1
# PIK-93 = compound: CC(=O)Nc1nc(C)c(-c2ccc(Cl)c(S(=O)(=O)NCCO)c2)s1 [PIK-93]; conditions: top dose 20 µM
# Description: as §1
# piperlongumine = compound: COc1cc(/C=C/C(=O)N2CCC=CC2=O)cc(OC)c1OC [piperlongumine]; conditions: top dose 10 µM
# Description: as §1
# GW 441756 = compound: Cn1cc(/C=C2\C(=O)Nc3cccnc32)c2ccccc21 [GW 441756]; conditions: top dose 2 µM; top dose inferred
# Description: as §1
Cell Line,AUC (GW843682X),pIC50 (GW843682X),AUC (Salubrinal),pIC50 (Salubrinal),AUC (ABT-263),pIC50 (ABT-263),AUC (PIK-93),pIC50 (PIK-93),AUC (piperlongumine),pIC50 (piperlongumine),AUC (GW 441756),pIC50 (GW 441756)
"LS-513 (large intestine, adherent)",0.825,6.79,0.934,< 4.80,0.975,< 5.70,0.802,4.98,0.798,5.30,0.97,< 5.70
"LB996-RCC (kidney, adherent)",0.783,6.90,0.913,< 4.80,0.928,< 5.70,0.901,< 4.70,0.908,< 5.00,–,–
"ES1 (Ewing sarcoma, adherent)",0.668,7.33,0.901,< 4.80,0.972,< 5.70,0.609,5.61,0.619,5.88,–,–
"NCI-H1355 (lung adenocarcinoma, adherent)",0.472,7.89,0.875,< 4.80,0.937,< 5.70,0.971,< 4.70,0.814,5.05,–,–
"LOXIMVI (melanoma, semi-adherent)",0.72,7.21,0.974,< 4.80,0.984,< 5.70,0.879,4.78,0.705,5.66,–,–
"KG-1 (acute myeloid leukaemia, suspension)",0.99,< 6.59,0.971,< 4.80,0.593,6.66,0.71,5.34,0.819,5.31,–,–
"ES3 (Ewing sarcoma, adherent)",0.962,< 6.59,0.933,< 4.80,0.877,< 5.70,0.652,5.47,0.778,5.37,–,–
"SUP-B15 (lymphoblastic leukaemia, suspension)",0.64,7.42,0.772,5.23,0.131,8.04,0.679,5.41,–,–,0.982,< 5.70
"MZ7-mel (melanoma, adherent)",0.737,7.11,0.959,< 4.80,0.987,< 5.70,0.763,5.13,0.757,5.45,–,–
"NB17 (neuroblastoma, adherent)",0.671,7.29,0.962,< 4.80,0.469,6.99,0.892,< 4.70,–,–,0.855,5.70
"H-EMC-SS (chondrosarcoma, adherent)",0.888,< 6.59,0.981,< 4.80,0.834,5.72,0.57,5.69,–,–,–,–
"RCC10RGB (kidney, adherent)",0.92,< 6.59,0.827,< 4.80,0.926,< 5.70,0.852,< 4.70,–,–,0.968,< 5.70
"NCI-H1581 (large cell lung carcinoma, semi-adherent)",0.634,7.44,0.914,< 4.80,–,–,0.92,< 4.70,0.779,5.42,0.977,< 5.70
"JAR (urogenital system, adherent)",0.575,7.59,0.88,< 4.80,0.984,< 5.70,0.693,5.37,0.702,5.64,–,–
"GCIY (stomach, adherent)",0.689,7.23,0.915,< 4.80,0.883,< 5.70,0.836,4.80,–,–,0.982,< 5.70
"BB65-RCC (kidney, adherent)",0.709,–,0.902,< 4.80,–,–,0.923,< 4.70,0.657,5.74,0.968,< 5.70
"TC-71 (Ewing sarcoma, adherent)",0.788,7.03,0.959,< 4.80,0.991,< 5.70,0.415,6.12,0.656,5.81,–,–
"NB7 (neuroblastoma, adherent)",0.985,< 6.59,0.96,< 4.80,0.986,< 5.70,0.883,< 4.70,0.749,5.47,–,–
"THP-1 (acute myeloid leukaemia, suspension)",0.972,< 6.59,0.972,< 4.80,–,–,0.75,5.22,0.825,5.28,0.991,< 5.70
"SK-N-DZ (neuroblastoma, adherent)",0.597,7.53,0.984,< 4.80,–,–,0.923,< 4.70,0.725,5.57,0.988,< 5.70
"IST-SL2 (small cell lung carcinoma, suspension)",0.66,7.35,0.862,4.87,0.622,6.57,–,–,0.965,< 5.00,0.986,< 5.70
"NCI-H64 (small cell lung carcinoma, suspension)",0.654,7.42,0.988,< 4.80,0.784,6.20,0.437,6.06,–,–,0.996,< 5.70
"NCI-H510A (small cell lung carcinoma, semi-adherent)",0.478,7.85,0.813,5.11,0.569,6.72,0.837,4.93,–,–,0.969,< 5.70
"SCC-15 (head and neck, adherent)",0.904,< 6.59,0.932,< 4.80,0.879,< 5.70,0.866,< 4.70,0.855,< 5.00,–,–
"MY-M12 (leukaemia, suspension)",0.344,8.26,0.862,< 4.80,0.465,7.00,0.352,6.34,–,–,0.978,< 5.70

Cell Line,AUC (GW843682X),pIC50 (GW843682X),AUC (Salubrinal),pIC50 (Salubrinal),AUC (ABT-263),pIC50 (ABT-263),AUC (PIK-93),pIC50 (PIK-93),AUC (piperlongumine),pIC50 (piperlongumine),AUC (GW 441756),pIC50 (GW 441756)
"SBC-1 (small cell lung carcinoma, suspension)",0.865,6.67,0.964,< 4.80,0.741,6.23,0.844,4.87,0.777,5.41,–,–
"LS-123 (large intestine, adherent)",0.782,6.84,0.949,< 4.80,–,–,0.93,< 4.70,0.807,5.13,0.981,< 5.70
"HT-144 (melanoma, adherent)",0.495,7.81,0.896,< 4.80,0.984,< 5.70,0.943,< 4.70,0.703,5.60,–,–
"MOLT-4 (lymphoblastic leukaemia, suspension)",0.445,7.93,0.863,5.01,–,–,0.706,5.38,0.787,5.46,0.98,< 5.70
"NTERA-2 cl.D1 (testis, adherent)",0.549,7.66,0.847,4.94,–,–,0.902,< 4.70,0.51,6.18,0.959,< 5.70
"DOHH-2 (B-cell lymphoma, suspension)",0.626,7.45,0.816,5.07,0.649,–,–,–,–,–,0.986,< 5.70
"SU-DHL-8 (B-cell lymphoma, suspension)",0.399,8.06,0.775,5.23,0.691,6.39,0.524,5.84,0.924,< 5.00,–,–
"LB647-SCLC (small cell lung carcinoma, semi-adherent)",0.555,7.64,0.985,< 4.80,0.94,< 5.70,–,–,0.82,5.18,0.883,< 5.70
"LC-2-ad (lung adenocarcinoma, adherent)",0.346,8.23,0.926,< 4.80,0.891,< 5.70,0.726,5.25,0.801,5.30,–,–
"SKM-1 (haematopoietic neoplasm, suspension)",0.984,< 6.59,0.983,< 4.80,0.383,7.24,–,–,0.717,5.56,–,–
"NB69 (neuroblastoma, adherent)",0.719,7.21,0.972,< 4.80,0.834,5.96,0.906,< 4.70,–,–,0.975,< 5.70
"NCI-H1666 (lung adenocarcinoma, semi-adherent)",0.987,< 6.59,0.984,< 4.80,–,–,0.913,< 4.70,0.81,5.23,0.965,< 5.70
"KARPAS-231 (B-cell leukaemia, suspension)",0.398,8.05,0.838,5.13,0.276,7.46,–,–,0.822,5.38,0.992,< 5.70
"NCI-H716 (large intestine, suspension)",0.975,< 6.59,0.956,< 4.80,–,–,0.851,< 4.70,0.742,5.42,0.969,< 5.70
"TE-10 (oesophagus, adherent)",0.435,7.97,0.901,< 4.80,0.988,< 5.70,0.958,< 4.70,0.771,5.42,–,–
"NCI-H446 (small cell lung carcinoma, semi-adherent)",0.435,7.98,0.949,< 4.80,0.57,6.71,–,–,0.784,5.34,0.985,< 5.70
"BB30-HNC (head and neck, adherent)",0.563,7.63,0.938,< 4.80,0.63,6.55,0.858,4.80,–,–,0.982,< 5.70
"DJM-1 (skin, adherent)",0.628,7.44,0.903,< 4.80,0.958,< 5.70,0.929,< 4.70,–,–,0.988,< 5.70
"GA-10 (Burkitt lymphoma, suspension)",0.498,7.80,0.725,5.41,0.991,< 5.70,–,–,0.761,5.52,0.99,< 5.70
"IM-9 (myeloma, suspension)",0.983,< 6.59,0.98,< 4.80,0.96,< 5.70,–,–,0.819,5.33,0.992,< 5.70
"LB2241-RCC (kidney, adherent)",0.938,< 6.59,0.69,5.44,–,–,0.972,< 4.70,0.756,5.42,0.98,< 5.70
"PL-21 (acute myeloid leukaemia, suspension)",0.53,7.71,0.877,< 4.80,–,–,0.338,6.39,0.802,5.23,0.97,< 5.70
"LNCaP-Clone-FGC (prostate, adherent)",0.984,< 6.59,0.964,< 4.80,0.978,< 5.70,0.789,4.99,0.808,5.22,–,–
"MHH-NB-11 (neuroblastoma, adherent)",0.785,6.91,0.911,< 4.80,0.858,5.72,0.751,5.15,–,–,0.943,< 5.70
